Hit rate of the full screen: of about 310,000 compounds, about 14,000 (4.5%) showed an effect of 50% or more. Effects have a minus sign here. This is one part of the list.
Biological target: human ether-à-go-go-related gene (hERG) potassium channel (human, UniProt Q12809)
Test: primary screen, population patch clamp on CHO cells stably expressing hERG
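Note: peak tail current of the secondary pulse compared with the same well before compound.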

human ether-à-go-go-related gene (hERG) potassium channel, sequence (Q12809 whole entry, looked up): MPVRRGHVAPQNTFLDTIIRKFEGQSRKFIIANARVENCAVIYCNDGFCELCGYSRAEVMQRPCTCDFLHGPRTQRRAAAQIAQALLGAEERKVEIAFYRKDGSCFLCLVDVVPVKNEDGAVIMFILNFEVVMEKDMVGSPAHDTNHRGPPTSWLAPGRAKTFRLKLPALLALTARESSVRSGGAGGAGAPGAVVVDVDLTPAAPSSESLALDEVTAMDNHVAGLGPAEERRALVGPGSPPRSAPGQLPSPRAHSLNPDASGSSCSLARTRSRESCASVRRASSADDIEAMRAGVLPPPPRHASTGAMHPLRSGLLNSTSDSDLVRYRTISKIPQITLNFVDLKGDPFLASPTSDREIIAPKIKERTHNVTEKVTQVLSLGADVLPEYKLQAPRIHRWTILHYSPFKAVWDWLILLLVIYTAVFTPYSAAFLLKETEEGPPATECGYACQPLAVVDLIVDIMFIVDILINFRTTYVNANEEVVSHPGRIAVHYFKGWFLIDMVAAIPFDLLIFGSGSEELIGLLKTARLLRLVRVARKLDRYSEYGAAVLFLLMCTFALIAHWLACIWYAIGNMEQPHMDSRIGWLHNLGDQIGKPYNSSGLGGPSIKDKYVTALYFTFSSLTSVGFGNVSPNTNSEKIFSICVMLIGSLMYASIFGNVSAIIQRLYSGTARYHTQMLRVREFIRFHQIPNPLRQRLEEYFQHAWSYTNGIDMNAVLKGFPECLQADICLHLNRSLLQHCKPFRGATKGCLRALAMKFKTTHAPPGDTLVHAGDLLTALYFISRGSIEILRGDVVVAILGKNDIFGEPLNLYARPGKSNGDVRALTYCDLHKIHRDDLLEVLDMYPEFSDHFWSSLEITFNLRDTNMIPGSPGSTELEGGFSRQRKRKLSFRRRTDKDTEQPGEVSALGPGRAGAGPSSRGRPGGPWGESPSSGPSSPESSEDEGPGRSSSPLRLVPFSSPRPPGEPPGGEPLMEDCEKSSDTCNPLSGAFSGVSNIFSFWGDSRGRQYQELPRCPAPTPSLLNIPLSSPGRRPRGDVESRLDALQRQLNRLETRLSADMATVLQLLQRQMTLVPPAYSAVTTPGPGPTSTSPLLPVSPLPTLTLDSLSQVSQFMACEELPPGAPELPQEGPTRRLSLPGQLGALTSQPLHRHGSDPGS

Point of comparison: `CN(CC(=O)NC1CCCCCC1)S(=O)(=O)c1cnc[nH]1`, “hERG current change (%, negative = inhibition) at 10uM” value 18.9%. Against it:
- c1ccc(C2CC(c3ccccc3)C(c3ccccc3)N2)cc1 (stereo not shown) — lower, -1.19%
- CCc1nc2ccc(C(=O)Nc3cccc(C(C)=O)c3)cc2nc1CC — lower, 1.42%
- CC1CCCN(c2nc3nonc3nc2Nc2ccccc2F)C1 (stereo not shown) — higher, 32.4%
- CCCCOc1ccccc1NC(=O)CC1Nc2ccccc2NC1=O (stereo not shown) — lower, 5.96%
- CC1CCN(C(=O)Oc2ccccc2)CC1 — higher, 26.4%
- Cc1ccc(/C=N/NC(=O)CSc2nc3ccccc3n2Cc2ccc(Cl)cc2)o1 — lower, -16.2%
- CC(Nc1nc(-c2ccc(F)cc2)cs1)c1nc2cc(C(F)(F)F)ccc2n1CCCO (stereo not shown) — lower, -42.5%
- Cc1cc(OCC(=O)OCC(=O)N(C)c2c(N)n(Cc3ccccc3)c(=O)[nH]c2=O)ccc1Cl — lower, -0.867%
- CC(C)(C)n1ncc2c(=O)n(Cc3cccc(Cl)c3)cnc21 — lower, -19.3%
- O=C(NNC(=O)C1CCN(S(=O)(=O)c2c(Cl)cccc2Cl)CC1)c1ccccc1O — lower, -24.6%
- C=CCN=C1SCC(=O)N1S(=O)(=O)c1ccc(C)cc1 — lower, -16.3%
- O=C(O)C1Nc2c(C(F)(F)F)ccc(Cl)c2C2C=CCC12 (stereo not shown) — higher, 20.1%
- CC(C)(C)NC(=O)c1ccc2nccnc2c1 — lower, 7.59%
- CCOC(=O)C1=C(c2ccccc2)NC(SCC)=C(C#N)C1c1cccnc1 (stereo not shown) — lower, 7.4%
- Cc1cccc(NCc2n[nH]c(=S)n2-c2ccccc2)c1 — lower, 4.73%
- CCOC(=O)CNc1nc(Oc2ccc(=O)n(C)n2)nc(N(CC)CC)n1 — lower, 0.791%
- CN(C(=O)c1cccc(Nc2ccc(-c3ccc4c(c3)OCCO4)nn2)c1)C1CCCCC1 — lower, 2.62%
- Cc1cccc(/C=N/n2c(-c3ccccc3)n[nH]c2=S)c1O — lower, 14.8%
- Cc1cccc(N(C(=O)Nc2ccccc2)C2=NCC(C)S2)c1 (stereo not shown) — lower, -1.06%
- CCCCCCC(=O)Nc1nc(C)c(-c2csc(Nc3cccc(OC)c3)n2)s1 — lower, 18%
- CN(C)C=O.COc1cc(/C=C/c2nc3ccccc3c(=O)n2-c2ccc(O)cc2)ccc1O — lower, 14.1%
- c1ccc(N(c2ccccc2)c2nc(-n3ccnc3)nc(-n3ccnc3)n2)cc1 — lower, -24.2%
- COc1ccccc1-c1n[nH]c(=S)o1 — higher, 21.9%
- O=C(CCNC(=O)c1ccccc1Cl)Nc1cc(C(F)(F)F)ccc1Cl — higher, 22.2%
- COc1cc(C(=O)NCc2cc3cc(Cl)ccc3n2C)cc(OC)c1OC — lower, 17.3%
- CC(=O)Cn1c(=O)oc2ccccc21 — lower, 4.02%
- Brc1cccc(-c2n[nH]c(-c3ccccc3)n2)c1 — lower, 2.27%
- COc1cccc(C(=O)N2CCN(Cc3ccccc3C(F)(F)F)CC2)c1.O=C(O)C(=O)O — lower, -15.6%
- COCCNc1nc2c(c(=O)n(Cc3ccccc3F)c(=O)n2C)n1C — lower, -15.8%
- Cc1oc2cc(O)ccc2c(=O)c1Oc1ccccc1Br — lower, 8.02%
- CN(C(=O)Oc1cccc2cccnc12)c1ccccc1 — lower, 13.3%
- COc1ccc2cc(C(=O)NCc3ccco3)c(=Nc3ccc(C(=O)O)cc3)oc2c1 — lower, -31.8%
- CCOC(=O)Cn1cc(C(=O)OC)c2ccccc21 — lower, 16.5%
- O=C(COC(=O)c1ccc(Br)o1)c1ccc(S(=O)(=O)N2CCCCC2)cc1 — lower, 14%
- COc1ccc(NS(=O)(=O)c2ccc(NC(=O)c3ccc(CN4CCOCC4)cc3)cc2)cc1 — higher, 27%
- Cc1ccccc1NC(=O)COC(=O)c1c[nH]c(=O)[nH]c1=O — higher, 23.4%
- COc1cc(NS(=O)(=O)c2ccc(OC)c(C)c2C)c(OC)cc1Cl — lower, 13.4%
- CCc1[nH]nc2c1C(C1C=CCCC1)C(C#N)=C(N)O2 (stereo not shown) — lower, -7.62%
- Cc1cc[n+](C(C)C(=O)c2ccc(-c3ccccc3)cc2)cc1.[Br-] (stereo not shown) — lower, 5.57%
- CC(CCc1ccccc1)NC(=O)CCc1cn(C)c2ccccc12 (stereo not shown) — lower, 18.3%
- Cc1ccc(OCC(=O)NCCNC(=O)c2ccccn2)cc1 — lower, 13.1%
- CCC1C(=O)N(c2nc(C)cc(C)n2)N=C1C (stereo not shown) — lower, 7.93%
- CCOC(=O)C1=C(N)Oc2c(oc(CO)cc2=O)C1c1ccc(Cl)cc1 (stereo not shown) — lower, -7.87%
- C=CCN(C(=O)CCC(=O)Nc1cc(C)on1)C(C(=O)NC1CCCC1)c1ccc(C)cc1 (stereo not shown) — lower, 0.416%
- COC(CN(C(=O)CCl)C(C(=O)NC1CCCC(C)C1C)c1ccc(C)cc1)OC (stereo not shown) — lower, 10.1%
- O=C1CC(N2C(=O)/C(=C/C=C/c3ccccc3)SC2=S)C(=O)N1c1ccccc1 (stereo not shown) — lower, 7.04%
- Cn1c(Nc2ccc(Cl)cc2)cc(=O)n(C)c1=O — higher, 23.6%
- COc1ccc(S(=O)(=O)N2CCCCC2)cc1NC(=O)COc1ccccc1 — lower, 13.7%
- COc1ccccc1NC(=O)c1ccc(NS(=O)(=O)c2cccc3cccnc23)cc1 — lower, 9.72%
- O=C(N/N=C1/CC2C=CCC12)c1ccc(Br)o1 (stereo not shown) — lower, 16.9%
- Cc1ccc2[nH]c3c(c2c1)CCCC3C(N)=O (stereo not shown) — lower, 12.6%
- Cc1ccc(S(=O)(=O)N2CCN(C(=O)CCCOc3ccc(Cl)cc3C)CC2)cc1 — lower, -20.8%
- CCOC(=O)NC(=S)Nc1ccc(C(C)(C)C)cc1 — lower, 3.81%
- Cl.O=C(O)C(c1ccccc1)N1CCCCC1 (stereo not shown) — higher, 26.7%
- COc1ccc(NC(=O)c2nnn(Cc3ccc(SC)cc3)c2N)c(OC)c1 — lower, 13.7%
- Cc1cc(C)n2nc[n+](C)c2n1.[I-] — lower, 16.3%
- COc1ccc(/C=N/c2oc(C)c(C)c2C#N)c(OC)c1 — lower, 14.2%
- NC(=O)C1CCCN(C(=O)CCCNC(=O)c2ccc(Cl)cc2)C1 (stereo not shown) — higher, 22.4%
- COC(=O)[C@]1(C)N[C@H](c2ccc(-c3ccc(Cl)c(Cl)c3)cc2)[C@@H]2C(=O)N(C)C(=O)[C@@H]21.O=C(O)C(F)(F)F — lower, 13.2%
- COc1ccccc1N(C(=O)CNC(=O)c1ccco1)C(C(=O)NC1CCCCC1)c1ccncc1 (stereo not shown) — higher, 25.1%
- COc1ccc(-c2cc(C(=O)N/N=C/c3sccc3C)c3ccccc3n2)c(OC)c1 — lower, 1.29%
- CC(=O)OC(C(=O)NC1CCCCC1)c1ccccc1 (stereo not shown) — lower, 12.9%
- O=C(CSc1ncccn1)NC(=O)Cc1ccccc1 — lower, 11.5%
- O=[N+]([O-])c1ccc(Oc2c(F)c(F)nc(N3CCCC3)c2F)cc1 — lower, -19.7%
- CCOC(=O)Cn1nc(C)c(NC(=O)COc2ccccc2)c1C — lower, 14%
- CNC(=O)COC(=O)/C=C/c1cn(-c2ccccc2)nc1-c1ccc2c(c1)OCCO2 — lower, 4.05%
- COCCN(C(=O)c1snc(C(N)=O)c1N)C(C(=O)NC1CCCC1)c1cc(OC)c(OC)c(OC)c1 (stereo not shown) — lower, -46.8%
- Cc1ccc(C(=O)Nc2ccc(N3CCOCC3)nc2)cc1 — lower, -9.28%
- CCOc1ccc(Br)cc1S(=O)(=O)N1CCSC1 — lower, -10.6%
- O=C(NCC1CCCO1)c1sc(=S)n2c1[nH]c(=O)c1ccc(C(=O)N3CCCCC3)cc12 (stereo not shown) — lower, -5.75%
- CCCCn1c(N)c(N(CCOC)C(=O)C2CCN(S(=O)(=O)c3ccc(F)cc3)CC2)c(=O)[nH]c1=O — lower, -1.06%
- CC1(NC(=O)CCc2ccccc2)CCN(CCCc2ccccc2)C1=O (stereo not shown) — lower, 5.85%
- Cc1cccc(C)c1NC(=O)Cn1c(=O)n(CCC(=O)NCc2ccco2)c(=O)c2sccc21 — lower, -1.77%
- CCCN(Cc1nnc(-c2cccs2)o1)C(=O)c1cc(S(=O)(=O)N2CCOCC2)ccc1C — lower, -37.1%
- O=C(NCc1cccs1)C1CCN(C(=O)NCc2ccccc2)CC1 — lower, 8.39%
- CCC(C)(C)NC(=O)c1ccc(Sc2nncn2C)c([N+](=O)[O-])c1 — lower, 3.37%
- CN(C)S(=O)(=O)c1cccc(NC(=O)CSc2nncn2C)c1 — lower, 11.6%
- COc1ccc(Cl)cc1NC(=O)CN(C)C(=O)c1cc2c(s1)CCC(C)C2 (stereo not shown) — lower, -0.503%
- Cc1ccc(/C=C(\NC(=O)c2ccccc2)C(=O)N2CCCC2C(=O)O)cc1 (stereo not shown) — higher, 22.7%
- Cc1cc(-c2n[nH]c(=S)n2/N=C/c2ccc(C)o2)n[nH]1 — lower, 16.4%
- N/C(=N\OC(=O)Cc1ccc([N+](=O)[O-])cc1)c1ccc([N+](=O)[O-])cc1 — lower, -24.4%
- CNC(=S)SCCOc1ccccc1C — lower, -9.49%
- COc1ccc(OC)c(C2NC(=O)NC(C)=C2C(=O)OC2CCCCC2)c1 (stereo not shown) — lower, 8.22%
- Clc1cccc(Nc2nc(-c3cccnc3)cs2)c1 — lower, -4.06%
- CC(=O)NC1(C(F)(F)F)C(=O)Nc2c1c(=O)[nH]c(=O)n2Cc1ccco1 (stereo not shown) — lower, 1.97%
- CCOc1ccc(NC(=O)CCS(=O)(=O)c2ccc(C)cc2)cc1 — lower, 4.49%
- CCc1c(C)c2c(C)nn(-c3ccccc3)c2oc1=O — lower, 8.11%
